In all, about 410,000 compounds went through this assay and about 7,200 (1.8%) were called active. The shares of active, inactive and inconclusive entries below differ from those in the screen. Calls come from the whole dose curve; as a rule, active = well fitted activation curve with a large enough effect; inconclusive = small, poorly fitted or top-dose-only effect, or another doubt; inactive = no such curve, though single readings can be large or run the other way. No potency is given beside an inconclusive call; the fits are too rough.
Assay: qHTS of TDP-43 Inhibitors; note: nearly all actives have a fitted effect of over 50% in size
Conditions: TDP-43 expressing yeast growth rescue, BacTiter-Glo, 24 h; series mostly up to 46.1 µM
Summary of the method: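 Cell-based yeast growth screen: TDP-43 expression induced in galactose, inoculum OD600=0.02 after raffinose pregrowth to mid-log. Read-out BacTiter-Glo luminescence at 24 hr, 30 deg C; inhibition of toxicity seen as signal increase.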
Potency is the fitted concentration of half-maximal effect; tags give direction and shape of the fitted curve.

Structure (SMILES) | Potency
O=C(NC1CCCc2ccccc21)c1cccc(S(=O)(=O)N2CCN(c3ccccc3)CC2)c1 (centres undefined) | inactive
CCOc1ccccc1NC(=O)C1CCCN1C(=O)OCc1ccccc1 (centres undefined) | inconclusive [activator, partial curve]
N#C/C=C1\n2c(nc3ccccc32)OC12CCCCC2 | active: 15.8 µM
Cc1cc(S(=O)(=O)NCC(c2ccco2)S(=O)(=O)c2ccccc2)ccc1F (centres undefined) | inconclusive [activator, full curve, poor fit]
CCOC(=O)c1c(C)[nH]c(C(=O)CSc2nccc(C)n2)c1C | inconclusive [activator, partial curve]
COc1cccc(/C=N/NC(=O)C(=O)Nc2ccccc2OC(F)(F)C(F)F)c1 | inconclusive [activator, full curve]
CC1CCC(NC(=O)c2cc3c(Cl)nc4ccccc4c3s2)CC1 (centres undefined) | inactive
Cc1cccc(N2CCN(C(=S)c3ccc4c(c3)OCO4)CC2)c1 | inconclusive [activator, single point]
O=C(Nc1cccc(Cl)c1)OCc1cncs1 | inconclusive [activator, single point]
CCCc1cc(=O)oc2cc(OCc3ccc(C(=O)O)cc3)ccc12 | active: 2.51 µM
CCc1ccc(CN(C)C(=O)CCc2nnc(COc3ccccc3)o2)cc1 | inconclusive [activator, partial curve]
O=C(c1cc2c(s1)-c1ccccc1OC2)N1CCN(c2ccccc2)CC1 | inconclusive [activator, partial curve]
Cc1ccc(OCCCSc2ncccn2)cc1C | inconclusive [activator, single point]
S=C(Nc1ccc(Cl)cc1)N1CCCCC1 | inconclusive [activator, partial curve]
COc1ccc(C(=O)O/N=C(\N)c2ccccn2)cc1[N+](=O)[O-] | inconclusive [activator, partial curve]
O=C(CCc1ccccc1)N(Cc1cccnc1)c1nc2c(F)cccc2s1 | active: 15.8 µM
Cc1ccc(NC(=O)N2CCC(c3ccccc3)C2)cc1C (centres undefined) | inconclusive [activator, partial curve]
Cc1nc(SCC(=O)NCc2ccc3c(c2)OCO3)c(C#N)c2c1CCCC2 | inconclusive [activator, single point]
CC(C)Cc1cc(C(=O)Nc2c(F)cc(F)cc2Br)no1 | inconclusive [activator, partial curve]

— PubChem BioAssay AID652104 (National Center for Advancing Translational Sciences (NCATS), 2013)
